{"source": "patent US20260034092A1", "about": "“BIOCIDAL COMPOSITION” (priority 2022, published 2026)", "test_system": "Pseudomonas aeruginosa ATCC 15 442, Escherichia coli K12 CECT 433, Staphylococcus aureus ATCC 6 538, Enterococcus hirae ATCC 10 541", "conditions": "after 10 days of treatment on the sterile plastic container; calculated on the total of all study microorganisms", "data": [{"smiles": "CC(O)C(=O)O", "note": "(stereo not shown) [Treatment A, lactic acid]", "values": [{"measurement": "efficiency percentage, Bactericide activity", "value": 46.9, "unit": "%"}]}]}
